Assay results published in publication PMC13022133.
These are yes or no findings as the source states them, for the method shown. In cells and extracts the contact can be indirect. Some binding calls cover weakened binding; strength is not graded here. Where a sequence is shown, tags or fusion partners need not be part of it.

Experiments:
[1] = biological target: T1, GFP-McIdas 10A (phospho-dead mutant) (not stated (human or mouse cDNA cloned)) (UniProt D6RGH6); experiment: co-IP; U2OS cells with tetracycline-induced myc-PLK4, transfected with GFP-McIdas (WT, 10A or 10D) or GFP alone; IP with anti-GFP on Protein A agarose, 3 h at 4 °C; lysis buffer 50 mM Tris-HCl pH 8.2, 150 mM NaCl, 5 mM EDTA, 5 mM MgCl2, 0.5% Triton X-100; also after 100 nM centrinone or DMSO (no effect on the interaction)
T1 sequence: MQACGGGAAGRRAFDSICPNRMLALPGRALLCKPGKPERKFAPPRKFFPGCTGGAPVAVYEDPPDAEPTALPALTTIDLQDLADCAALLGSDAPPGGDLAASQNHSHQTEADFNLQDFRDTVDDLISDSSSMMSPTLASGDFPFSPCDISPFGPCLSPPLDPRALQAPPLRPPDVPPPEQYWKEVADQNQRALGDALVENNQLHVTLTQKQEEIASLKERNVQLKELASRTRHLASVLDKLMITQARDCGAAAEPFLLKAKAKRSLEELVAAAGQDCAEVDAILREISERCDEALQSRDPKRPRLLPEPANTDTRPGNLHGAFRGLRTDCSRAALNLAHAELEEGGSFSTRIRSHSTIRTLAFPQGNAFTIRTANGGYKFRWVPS

[2] = biological target: T2, GFP-McIdas 10D (phospho-mimetic mutant) (not stated (human or mouse cDNA cloned)) (UniProt D6RGH6); experiment: as above
T2 sequence: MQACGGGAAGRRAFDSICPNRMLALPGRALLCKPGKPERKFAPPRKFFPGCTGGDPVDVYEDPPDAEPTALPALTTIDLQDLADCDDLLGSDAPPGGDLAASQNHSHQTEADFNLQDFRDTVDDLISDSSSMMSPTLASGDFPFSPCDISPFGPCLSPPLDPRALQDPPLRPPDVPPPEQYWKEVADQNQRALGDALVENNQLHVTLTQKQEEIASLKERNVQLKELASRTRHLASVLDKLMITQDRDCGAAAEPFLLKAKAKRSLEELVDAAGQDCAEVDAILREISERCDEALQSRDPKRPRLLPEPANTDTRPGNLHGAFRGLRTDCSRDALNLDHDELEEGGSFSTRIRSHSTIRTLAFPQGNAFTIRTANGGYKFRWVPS

[3] = biological target: T3, GFP-tagged McIdas (GFP-McIdas WT), expressed in U2OS myc-PLK4 cells (not stated (human or mouse cDNA cloned)) (UniProt D6RGH6); experiment: as above
T3 sequence: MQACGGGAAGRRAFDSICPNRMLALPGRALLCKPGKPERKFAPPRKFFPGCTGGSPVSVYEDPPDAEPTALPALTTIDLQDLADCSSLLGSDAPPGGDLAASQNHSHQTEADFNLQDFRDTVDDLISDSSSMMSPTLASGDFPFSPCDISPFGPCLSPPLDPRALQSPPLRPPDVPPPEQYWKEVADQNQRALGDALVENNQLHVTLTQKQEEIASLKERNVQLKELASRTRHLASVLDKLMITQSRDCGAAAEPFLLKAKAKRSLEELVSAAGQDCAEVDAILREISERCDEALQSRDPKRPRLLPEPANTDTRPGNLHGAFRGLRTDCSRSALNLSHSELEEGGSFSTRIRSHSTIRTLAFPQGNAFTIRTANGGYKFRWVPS

[4] = biological target: T4, HA-STIL (SCL/TAL1 interrupting locus protein) (UniProt Q15468); experiment: co-IP; HEK 293T cells co-transfected with HA-STIL and GFP-McIdas or GFP alone, or with SAS6-GFP (tetracycline-dependent promoter) and McIdas-HA or HA alone; IP with anti-HA on Protein A agarose
T4 sequence: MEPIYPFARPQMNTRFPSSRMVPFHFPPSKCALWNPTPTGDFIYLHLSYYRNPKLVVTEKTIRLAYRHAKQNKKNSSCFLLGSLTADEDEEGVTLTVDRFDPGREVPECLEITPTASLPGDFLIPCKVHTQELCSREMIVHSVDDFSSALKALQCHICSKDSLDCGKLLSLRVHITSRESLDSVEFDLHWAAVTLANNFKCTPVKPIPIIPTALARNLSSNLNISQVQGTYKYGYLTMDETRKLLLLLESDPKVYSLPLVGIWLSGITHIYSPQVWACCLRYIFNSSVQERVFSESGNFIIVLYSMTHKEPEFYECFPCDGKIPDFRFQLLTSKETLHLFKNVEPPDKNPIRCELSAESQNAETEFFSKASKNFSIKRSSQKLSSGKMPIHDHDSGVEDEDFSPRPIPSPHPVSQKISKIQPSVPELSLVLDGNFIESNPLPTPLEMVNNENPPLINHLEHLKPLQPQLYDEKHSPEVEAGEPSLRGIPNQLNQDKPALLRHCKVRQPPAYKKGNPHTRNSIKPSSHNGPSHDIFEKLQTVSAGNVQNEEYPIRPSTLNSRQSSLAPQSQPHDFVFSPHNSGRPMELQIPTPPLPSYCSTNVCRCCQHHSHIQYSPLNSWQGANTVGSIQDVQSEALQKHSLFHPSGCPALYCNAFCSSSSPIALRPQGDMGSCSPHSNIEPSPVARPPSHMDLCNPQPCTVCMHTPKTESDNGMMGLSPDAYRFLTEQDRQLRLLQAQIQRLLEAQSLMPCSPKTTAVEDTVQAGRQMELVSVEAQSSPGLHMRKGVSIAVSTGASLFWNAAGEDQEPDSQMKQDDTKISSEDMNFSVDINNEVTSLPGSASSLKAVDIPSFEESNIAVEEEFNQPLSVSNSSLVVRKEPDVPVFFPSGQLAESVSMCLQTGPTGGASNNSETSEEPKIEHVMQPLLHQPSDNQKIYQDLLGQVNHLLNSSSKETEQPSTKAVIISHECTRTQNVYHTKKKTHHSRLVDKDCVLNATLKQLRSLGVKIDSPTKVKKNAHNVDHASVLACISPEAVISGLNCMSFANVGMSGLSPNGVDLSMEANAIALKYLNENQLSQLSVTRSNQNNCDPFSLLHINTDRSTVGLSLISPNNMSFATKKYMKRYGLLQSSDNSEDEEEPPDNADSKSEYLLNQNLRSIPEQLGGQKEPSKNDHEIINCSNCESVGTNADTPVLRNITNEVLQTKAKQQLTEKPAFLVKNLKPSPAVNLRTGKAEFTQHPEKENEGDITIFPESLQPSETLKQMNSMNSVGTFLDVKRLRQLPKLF

[5] = biological target: T5, McIdas-HA (UniProt D6RGH6); experiment: as above
T5 sequence: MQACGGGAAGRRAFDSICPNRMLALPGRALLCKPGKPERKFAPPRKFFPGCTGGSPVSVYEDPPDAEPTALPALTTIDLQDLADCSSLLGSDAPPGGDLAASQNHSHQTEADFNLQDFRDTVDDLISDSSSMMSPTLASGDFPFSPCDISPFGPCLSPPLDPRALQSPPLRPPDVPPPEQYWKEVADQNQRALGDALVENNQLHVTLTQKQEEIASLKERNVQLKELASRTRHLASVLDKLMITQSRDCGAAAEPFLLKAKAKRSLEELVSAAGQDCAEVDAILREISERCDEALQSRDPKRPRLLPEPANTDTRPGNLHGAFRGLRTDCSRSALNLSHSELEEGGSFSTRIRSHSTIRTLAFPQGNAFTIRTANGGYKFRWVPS

B1: myc-PLK4 (Polo-like kinase 4), tetracycline-inducible in U2OS cells (enzyme, UniProt O00444 1-970)
chain: MATCIGEKIEDFKVGNLLGKGSFAGVYRAESIHTGLEVAIKMIDKKAMYKAGMVQRVQNEVKIHCQLKHPSILELYNYFEDSNYVYLVLEMCHNGEMNRYLKNRVKPFSENEARHFMHQIITGMLYLHSHGILHRDLTLSNLLLTRNMNIKIADFGLATQLKMPHEKHYTLCGTPNYISPEIATRSAHGLESDVWSLGCMFYTLLIGRPPFDTDTVKNTLNKVVLADYEMPSFLSIEAKDLIHQLLRRNPADRLSLSSVLDHPFMSRNSSTKSKDLGTVEDSIDSGHATISTAITASSSTSISGSLFDKRRLLIGQPLPNKMTVFPKNKSSTDFSSSGDGNSFYTQWGNQETSNSGRGRVIQDAEERPHSRYLRRAYSSDRSGTSNSQSQAKTYTMERCHSAEMLSVSKRSGGGENEERYSPTDNNANIFNFFKEKTSSSSGSFERPDNNQALSNHLCPGKTPFPFADPTPQTETVQQWFGNLQINAHLRKTTEYDSISPNRDFQGHPDLQKDTSKNAWTDTKVKKNSDASDNAHSVKQQNTMKYMTALHSKPEIIQQECVFGSDPLSEQSKTRGMEPPWGYQNRTLRSITSPLVAHRLKPIRQKTKKAVVSILDSEEVCVELVKEYASQEYVKEVLQISSDGNTITIYYPNGGRGFPLADRPPSPTDNISRYSFDNLPEKYWRKYQYASRFVQLVRSKSPKITYFTRYAKCILMENSPGADFEVWFYDGVKIHKTEDFIQVIEKTGKSYTLKSESEVNSLKEEIKMYMDHANEGHRICLALESIISEEERKTRSAPFFPIIIGRKPGSTSSPKALSPPPSVDSNYPTRERASFNRMVMHSAASPTQAPILNPSMVTNEGLGLTTTASGTDISSNSLKDCLPKSAQLLKSVFVKNVGWATQLTSGAVWVQFNDGSQLVVQAGVSSISYTSPNGQTTRYGENEKLPDYIKQKLQCLSSILLMFSNPTPNFH
B1 was tested, and the binding [1] was “binds”, the binding [2] was “binds” and the binding [3] was “binds”.

B2: GFP-tagged McIdas (GFP-McIdas), expressed in HEK 293T cells (protein, UniProt D6RGH6 1-385)
chain: MQACGGGAAGRRAFDSICPNRMLALPGRALLCKPGKPERKFAPPRKFFPGCTGGSPVSVYEDPPDAEPTALPALTTIDLQDLADCSSLLGSDAPPGGDLAASQNHSHQTEADFNLQDFRDTVDDLISDSSSMMSPTLASGDFPFSPCDISPFGPCLSPPLDPRALQSPPLRPPDVPPPEQYWKEVADQNQRALGDALVENNQLHVTLTQKQEEIASLKERNVQLKELASRTRHLASVLDKLMITQSRDCGAAAEPFLLKAKAKRSLEELVSAAGQDCAEVDAILREISERCDEALQSRDPKRPRLLPEPANTDTRPGNLHGAFRGLRTDCSRSALNLSHSELEEGGSFSTRIRSHSTIRTLAFPQGNAFTIRTANGGYKFRWVPS
With B2 the binding [4] was “no binding”.

B3: HsSAS6-GFP (Spindle assembly abnormal protein 6 homolog) (protein, UniProt Q6UVJ0 1-657)
chain: MSQVLFHQLVPLQVKCKDCEERRVSIRMSIELQSVSNPVHRKDLVIRLTDDTDPFFLYNLVISEEDFQSLKFQQGLLVDFLAFPQKFIDLLQQCTQEHAKEIPRFLLQLVSPAAILDNSPAFLNVVETNPFKHLTHLSLKLLPGNDVEIKKFLAGCLKCSKEEKLSLMQSLDDATKQLDFTRKTLAEKKQELDKLRNEWASHTAALTNKHSQELTNEKEKALQAQVQYQQQHEQQKKDLEILHQQNIHQLQNRLSELEAANKDLTERKYKGDSTIRELKAKLSGVEEELQRTKQEVLSLRRENSTLDVECHEKEKHVNQLQTKVAVLEQEIKDKDQLVLRTKEAFDTIQEQKVVLEENGEKNQVQLGKLEATIKSLSAELLKANEIIKKLQGDLKTLMGKLKLKNTVTIQQEKLLAEKEEKLQKEQKELQDVGQSLRIKEQEVCKLQEQLEATVKKLEESKQLLKNNEKLITWLNKELNENQLVRKQDVLGPSTTPPAHSSSNTIRSGISPNLNVVDGRLTYPTCGIGYPVSSAFAFQNTFPHSISAKNTSHPGSGTKVQFNLQFTKPNASLGDVQSGATISMPCSTDKENGENVGLESKYLKKREDSIPLRGLSQNLFSNSDHQRDGTLGALHTSSKPTALPSASSAYFPGQLPNS
In the case of B3, the binding [5] is reported as “no binding”.
